From patent publication US20230122503A1, “ANTI-PSMA RADIOCONJUGATES AND USES THEREOF” (Janssen Biotech, Inc., priority 2021, published 2023)

Assays:
[1] = target: T1, recombinant human ECD (human PSMA) (Homo sapiens, UniProt Q04609); assay: SPR (BIACORE 8K) binding of anti-PSMA antibodies to recombinant human PSMA ECD; settings: antibody captured on anti-Fc C1 chip, PSMA antigen titrated, 1:1 Langmuir model
T1 construct: made in house
Procedure: The binding affinity of purified anti-PSMA antibodies to the recombinant human ECD was determined by surface plasmon resonance (SPR) using a BIACORE 8K instrument. The antibodies were captured on a goat anti-Fc antibody-modified C1 chip and titrated with 3-fold serial dilutions of PSMA antigen spanning concentrations of 1 nM to 11.1 nM. The association and dissociation were monitored for 3 and 15 minutes, respectively, using a flow rate of 50 μL/min. Raw binding data was referenced by subtracting the analyte binding signals from blanks and analyzed using a 1:1 Langmuir binding model using the Biacore Insight evaluation software to obtain the kinetics which were used to calculate the binding affinity.

[2] = SE HPLC of purified antibodies (% monomer post protein A); format: physicochemical; settings: post protein A purification
Procedure: SE HPLC of the purified antibodies was performed by running samples on a TOSOH TSKgel BioAssist G3SWxl column, in 0.2 M Na Phosphate pH 6.8 at 1 mL/min on a Waters Alliance HPLC for 20 min. The column effluent was monitored by absorbance at 280 nm. For a molecule to be considered a therapeutic lead, it is critical that it can be produced in substantial amounts with high purity and high yield. Typically, purification losses are higher, and yields are lower with aggregation-prone proteins. The initial monomer percentage is generally considered a good surrogate indicator of the manufacturability of a protein.

[3] = Thermal stability by nanoDSF (Tm, Tagg); format: physicochemical; settings: 20° C. to 95° C. at 1.0° C./minute
Procedure: The thermal stability (conformational stability) of the anti-PSMA antibodies was determined by nanoDSF method using a Prometheus instrument. Measurements were made by loading sample into 24 well capillary from a 384 well sample plate. Duplicate runs were performed. The thermal scans span from 20° C. to 95° C. at a rate of 1.0° C./minute. The data was processed to obtain integrated data and first derivation analysis for 330 nm, 350 nm, Ratio 330/350, and scatter data from which thermal transitions, onset of unfolding, Tm and Tagg were obtained.
“Tm” or “mid-point temperature” is the temperature midpoint of a thermal unfolding curve. It refers to the temperature where 50% of the amino acid sequence is in its native conformation and the other 50% is denatured. A thermal unfolding curve is typically plotted as a function of temperature. Tm is used to measure protein stability. […] The Tm can be readily determined using methods well known to those skilled in the art such as Circular Dichroism Spectroscopy, Differential Scanning Calorimetry, Differential Scanning Fluorimetry (both intrinsic and extrinsic dye based), UV spectroscopy, FT-IR and Isothermal Calorimetry (ITC).
“Tagg” refers to the temperature at which the protein starts to aggregate either through dimerization or oligomerization. The aggregation temperature detects the onset of aggregation, the temperature at which a protein will show a tendency to aggregate. Tagg can be determined by differential scanning calorimetry (DSC), Differential Scanning Fluorimetry (DSF) or by circular dichroism (CD). These techniques can detect small changes in the conformation of the protein and therefore detect the starting point of aggregation. Tagg values can be lower or higher than Tm. In cases where Tagg is lower than Tm, the protein either dimerizes and/or oligomerizes first and then starts unfolding later at higher temperatures than the Tagg. In cases where Tagg is higher than Tm, the protein starts to unfold first and then aggregates at a higher temperature than the Tm. Both events are commonly observed and depend on amino acid composition and protein conformation.
Thermal unfolding parameters, Tm or midpoint temperature of thermal unfolding and Tagg or aggregation temperature of selected anti-PSMA antibodies are shown in Table 23.

[4] = tested on: C4-2b cells, a cell line with high PSMA expression; assay: Cytotoxicity of MMAF-conjugated anti-PSMA antibodies on C4-2B cells (Cell Titer Glo, 72h); format: cell-based, human; settings: MMAF-conjugated antibody, DAR ~4.0, 72h, read-out: Cytotox (IC50) C4-2B, DAR ~4.0
Procedure: mAbs were conjugated to a monomethyl auristatin F (MMAF) payload in a 96-well format to enable screening for optimal ADC candidates. 220 ug of each mAb (1 mg/mL in dPBS) was mixed with TCEP to a final concentration of 3 mM and incubated at 37° C. for 1r. Reduced mAbs were captured on protein A resin (Protein A HP Multitrap, GE) and washed 3× with 100 mM potassium phosphate containing 2 mM EDTA at pH 7.5 to remove TCEP.
A mixture of maleimide-PEG4-vcPAB-MMAF and N-ethyl maleimide (60:40 molar ratio, 100 uM total in 100 mM potassium phosphate containing 2 mM EDTA at pH 7.5) was prepared and the resin with bound mAb was resuspended in 300 uL of the maleimide mixture. Samples were rotated for 1 hr at RT followed by quenching with N—Ac-L-Cys (2.6 mM final). Resin was washed with dPBS and then bound mAbs were eluted with 100 mM sodium acetate pH 3.5 into 0.2-0.25 volumes of 1 M Tris pH 8.0 to neutralize. ADC concentrations and DAR (panel average of 4.0±0.5) of the eluted ADCs were determined by UV-Vis spectrophotometry at 248 and 280 nm based on previous reports (Hamblett, et. al., (2004) Clinical Cancer Research, 10, 7063-7070; Cruz and Kayser (2009) Cancers 11(6), 870)
C4-2b cells, a cell line with high PSMA expression, were cultured in RPMI1640 containing GlutaMAX, 25 mM HEPES and 10% fetal bovine serum (FBS) and then plated in white 96 well plates at 3000 cells per well (60 uL/well). Twenty four hours after plating, cells were treated with varying concentrations of the ADCs and then incubated at 37 C, 5% CO2. Following 72h of treatment, cell viability was assessed by Cell Titer Glo (Promega), according to manufacturer's instructions. Relative luminescence units (RLU) were detected in an Envision plate reader (Molecular Devices) and then normalized to untreated controls. The concentration at which there was 50% toxicity was determined by fitting the values to a 3-point sigmoidal curve where the top was constrained to 100% and interpolating the X-value at Y=50%.

T1 sequence (Q04609 with tags, fused parts or gaps): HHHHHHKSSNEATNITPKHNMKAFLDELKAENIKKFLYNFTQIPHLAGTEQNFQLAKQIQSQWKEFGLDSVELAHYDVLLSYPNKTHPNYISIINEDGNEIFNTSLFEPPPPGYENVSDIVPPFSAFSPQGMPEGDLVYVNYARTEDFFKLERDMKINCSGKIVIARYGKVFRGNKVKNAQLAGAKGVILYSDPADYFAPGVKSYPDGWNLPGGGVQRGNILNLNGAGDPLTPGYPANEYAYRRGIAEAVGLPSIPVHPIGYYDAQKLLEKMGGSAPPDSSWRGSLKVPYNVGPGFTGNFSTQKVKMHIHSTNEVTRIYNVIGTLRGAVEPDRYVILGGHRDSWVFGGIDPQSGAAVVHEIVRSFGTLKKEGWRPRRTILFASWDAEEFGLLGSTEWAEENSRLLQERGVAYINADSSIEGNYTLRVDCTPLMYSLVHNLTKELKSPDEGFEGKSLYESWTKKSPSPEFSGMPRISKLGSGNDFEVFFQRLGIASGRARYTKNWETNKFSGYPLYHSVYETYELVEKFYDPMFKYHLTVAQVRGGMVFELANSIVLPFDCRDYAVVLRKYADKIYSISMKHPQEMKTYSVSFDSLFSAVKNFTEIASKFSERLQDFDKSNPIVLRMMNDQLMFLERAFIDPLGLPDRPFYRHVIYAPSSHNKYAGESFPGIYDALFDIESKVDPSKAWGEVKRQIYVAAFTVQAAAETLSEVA

Molecule | Koff [1] [s⁻¹] | Kon [1] [M⁻¹ s⁻¹] | SEC (% monomer post protein A) [2] [%] | Fab Tm [3] [°C] | Tagg [3] [°C] | IC50 [4] [nM]
PSMB1098 (antibody) heavy: QVQLVESGGGVVQPGRSLRLSCAASGFTFSTYGMHWVRQAPGKGLEWVAFISYDGSNKYYADSVKGRFTISRDNSKHTLYLQMNSLRAEDTAVYYCAGRDNLRFLEWFMDVWGQGTTVTVSS[human IgG1 constant region not given here] light: EIVMTQSPATLSVSPGERATLSCRASQSVRSNLAWYQQKPGQAPRLLIYGASTRATGIPARFSGSGSGTEFTLTISSLQSEDFAVYYCHQYNDWPPYTFGQGTKVEIKRTVAAPSVFIFPPSDEQLKSGTASVVCLLNNFYPREAKVQWKVDNALQSGNSQESVTEQDSKDSTYSLSSTLTLSKADYEKHKVYACEVTHQGLSSPVTKSFNRGEC | 2.85e-05 | 52700 | 96.4 | 77.7 | 77.8 | 0.0564
PSMB1088 (antibody) heavy: EVQLVESGGGVVQPGRSLRLSCAASGFTFSSYDMHWVRQAPGKGLEWVTVISFDGSNKYYVDSVKGRFTISRDNSKNTLYLQMNSLRAEDTAVYYCARTYYDILTGYSHYSYGMDVWGQGTTVTVSS[human IgG1 constant region not given here] light: EIVMTQSPSSLSASVGDRVTITCRASQGISNYLAWYQQKPGKVPKLLIYATSTLQSGVPSRFSGSGSGTDFILTISSLQPEDVANYYCQKYNSAPFTFGPGTKVEIKRTVAAPSVFIFPPSDEQLKSGTASVVCLLNNFYPREAKVQWKVDNALQSGNSQESVTEQDSKDSTYSLSSTLTLSKADYEKHKVYACEVTHQGLSSPVTKSFNRGEC | 2.85e-05 | 29400 | 96.4 | 75.9 | 76.7 | 0.067
